According to the supplement of paper PMC4967469:
pIC50: −log10 of the molar value. Lines with a small IC50 respond at low doses; where the fit passes the top or lowest dose, that dose stands as a limit. AUC, from the same fit, is the share of area under the viability curve across the 256-fold dose range; it is 1 without any effect and falls as sensitivity rises. A top dose marked as inferred comes from the curve model; the source does not state it.

Assays:
FR-180204 = compound: Nc1[nH]nc2nnc(-c3c(-c4ccccc4)nn4ccccc34)cc12 [FR-180204]; experiment: Viability of human cancer cell lines after 72 h of drug (GDSC screen); details: top dose 20 µM; top dose inferred
Method: (§1)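 Human cancer cell lines in 384-well plates, medium with 10% serum, drug for 72 h over a 256-fold dose range (nine 2-fold or five 4-fold steps up to the top dose). Adherent lines were fixed and stained with the nucleic acid dye Syto60, suspension lines read with resazurin; signal relative to control wells, capped at 0 and 100%. One two-parameter sigmoid per drug and line, fitted in a mixed model over all curves with the slope shared within a line.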

FK866 = compound: O=C(/C=C/c1cccnc1)NCCCCC1CCN(C(=O)c2ccccc2)CC1 [FK866]; experiment: as above; details: top dose 1 µM; top dose inferred
Method: as §1

In the case of “DMS-273 (small cell lung carcinoma, adherent)”, the AUC (FR-180204) was 0.967, the pIC50 (FR-180204) was less than 4.70 and the AUC (FK866) was 0.126. It also gave a pIC50 (FK866) greater than 8.41.

With DND-41 (T-cell leukaemia, suspension) the AUC (FR-180204) was 0.915, the pIC50 (FR-180204) was less than 4.70 and the AUC (FK866) was 0.023. The pIC50 (FK866) was greater than 8.41.

With DOK (head and neck, adherent) the AUC (FR-180204) was 0.976, the pIC50 (FR-180204) was less than 4.70 and the AUC (FK866) was 0.704. The pIC50 (FK866) was 6.50.

Cell Line DOV13 (ovary, adherent) has an AUC (FR-180204) of 0.938, a pIC50 (FR-180204) of less than 4.70 and an AUC (FK866) of 0.242. The pIC50 (FK866) was 8.01.

With DSH1 (bladder, adherent) the AUC (FR-180204) was 0.949, the pIC50 (FR-180204) was less than 4.70 and the AUC (FK866) was 0.897. For the same cell line, the pIC50 (FK866) was less than 6.00.

With DU-145 (prostate, adherent) the AUC (FR-180204) was 0.976, the pIC50 (FR-180204) was less than 4.70 and the AUC (FK866) was 0.374. The pIC50 (FK866) was 7.57.

DU-4475 (breast, suspension) showed an AUC (FR-180204) of 0.961, a pIC50 (FR-180204) of less than 4.70 and an AUC (FK866) of 0.02. The pIC50 (FK866) was greater than 8.41.

With Daoy (medulloblastoma, adherent) the AUC (FR-180204) was 0.984, the pIC50 (FR-180204) was less than 4.70 and the AUC (FK866) was 0.562. The pIC50 (FK866) was 7.04.

Daudi (Burkitt lymphoma, suspension) showed an AUC (FR-180204) of 0.988, a pIC50 (FR-180204) of less than 4.70 and an AUC (FK866) of 0.186. For the same cell line, the pIC50 (FK866) was 8.07.

With Detroit562 (head and neck, adherent) the AUC (FR-180204) was 0.986, the pIC50 (FR-180204) was less than 4.70 and the AUC (FK866) was 0.68. It also gave a pIC50 (FK866) of 6.71.

Work on DoTc2-4510 (cervix, adherent) yielded an AUC (FR-180204) of 0.984, a pIC50 (FR-180204) of less than 4.70 and an AUC (FK866) of 0.846. The pIC50 (FK866) was 6.17.

Work on EB2 (Burkitt lymphoma, suspension) yielded an AUC (FR-180204) of 0.955, a pIC50 (FR-180204) of less than 4.70 and an AUC (FK866) of 0.19. The pIC50 (FK866) was 8.08.

With EB-3 (Burkitt lymphoma, suspension) the AUC (FR-180204) was 0.948, the pIC50 (FR-180204) was less than 4.70 and the AUC (FK866) was 0.045. The pIC50 (FK866) was greater than 8.41.

“EBC-1 (lung squamous cell carcinoma, adherent)” gave an AUC (FR-180204) of 0.968, a pIC50 (FR-180204) of less than 4.70 and an AUC (FK866) of 0.691. For the same cell line, the pIC50 (FK866) was 6.63.

For EC-GI-10 (oesophagus, adherent), the AUC (FR-180204) was 0.981, the pIC50 (FR-180204) was less than 4.70 and the AUC (FK866) was 0.085. It also gave a pIC50 (FK866) greater than 8.41.

ECC10 (stomach, suspension) was tested, and the AUC (FR-180204) was 0.98, the pIC50 (FR-180204) was less than 4.70 and the AUC (FK866) was 0.032. For the same cell line, the pIC50 (FK866) was greater than 8.41.

Work on EFM-19 (breast, adherent) yielded an AUC (FR-180204) of 0.972, a pIC50 (FR-180204) of less than 4.70 and an AUC (FK866) of 0.828. For the same cell line, the pIC50 (FK866) was less than 6.00.

For EFM-192A (breast, adherent), the AUC (FR-180204) was 0.965, the pIC50 (FR-180204) was less than 4.70 and the AUC (FK866) was 0.889. It also gave a pIC50 (FK866) of less than 6.00.

EFO-21 (ovary, adherent) showed an AUC (FR-180204) of 0.962, a pIC50 (FR-180204) of less than 4.70 and an AUC (FK866) of 0.782. The pIC50 (FK866) was 6.20.

EFO-27 (ovary, adherent) was tested, and the AUC (FR-180204) was 0.929, the pIC50 (FR-180204) was less than 4.70 and the AUC (FK866) was 0.55. It also gave a pIC50 (FK866) of 7.05.

EGI-1 (biliary tract, adherent) was tested, and the AUC (FR-180204) was 0.969, the pIC50 (FR-180204) was less than 4.70 and the AUC (FK866) was 0.668. The pIC50 (FK866) was 6.67.

EJM (lymphoid neoplasm, semi-adherent) showed an AUC (FR-180204) of 0.972, a pIC50 (FR-180204) of less than 4.70 and an AUC (FK866) of 0.261. For the same cell line, the pIC50 (FK866) was 7.83.

EKVX (lung adenocarcinoma, adherent) showed an AUC (FR-180204) of 0.949, a pIC50 (FR-180204) of less than 4.70 and an AUC (FK866) of 0.962. It also gave a pIC50 (FK866) of less than 6.00.

“EM-2 (chronic myeloid leukaemia, suspension)” gave an AUC (FR-180204) of 0.848, a pIC50 (FR-180204) of 4.74 and an AUC (FK866) of 0.059. For the same cell line, the pIC50 (FK866) was greater than 8.41.

“EMC-BAC-1 (lung adenocarcinoma, adherent)” was tested, and the AUC (FR-180204) was 0.894, the pIC50 (FR-180204) was less than 4.70 and the AUC (FK866) was 0.252. It also gave a pIC50 (FK866) of 7.97.

For “EMC-BAC-2 (lung adenocarcinoma, adherent)”, the AUC (FR-180204) was 0.97, the pIC50 (FR-180204) was less than 4.70 and the AUC (FK866) was 0.138. For the same cell line, the pIC50 (FK866) was greater than 8.41.

Cell Line EN (endometrium, adherent) has an AUC (FR-180204) of 0.983, a pIC50 (FR-180204) of less than 4.70 and an AUC (FK866) of 0.508. The pIC50 (FK866) was 7.18.

In the case of “EPLC-272H (lung squamous cell carcinoma, adherent)”, the AUC (FR-180204) was 0.949, the pIC50 (FR-180204) was less than 4.70 and the AUC (FK866) was 0.97. It also gave a pIC50 (FK866) of less than 6.00.

In the case of ES1 (Ewing sarcoma, adherent), the AUC (FR-180204) was 0.94, the pIC50 (FR-180204) was less than 4.70 and the AUC (FK866) was 0.035. The pIC50 (FK866) was greater than 8.41.

Work on ES3 (Ewing sarcoma, adherent) yielded an AUC (FR-180204) of 0.962, a pIC50 (FR-180204) of less than 4.70 and an AUC (FK866) of 0.14. For the same cell line, the pIC50 (FK866) was 8.37.

ES4 (Ewing sarcoma, adherent) gave an AUC (FR-180204) of 0.881, a pIC50 (FR-180204) of less than 4.70 and an AUC (FK866) of 0.168. The pIC50 (FK866) was 8.30.

ES5 (Ewing sarcoma, adherent) showed an AUC (FR-180204) of 0.916, a pIC50 (FR-180204) of less than 4.70 and an AUC (FK866) of 0.255. For the same cell line, the pIC50 (FK866) was 7.96.

Cell Line ES6 (Ewing sarcoma, adherent) has an AUC (FR-180204) of 0.958, a pIC50 (FR-180204) of less than 4.70 and an AUC (FK866) of 0.098. For the same cell line, the pIC50 (FK866) was greater than 8.41.

With ES7 (Ewing sarcoma, adherent) the AUC (FR-180204) was 0.947, the pIC50 (FR-180204) was less than 4.70 and the AUC (FK866) was 0.039. The pIC50 (FK866) was greater than 8.41.

Work on ES8 (Ewing sarcoma, adherent) yielded an AUC (FR-180204) of 0.922, a pIC50 (FR-180204) of less than 4.70 and an AUC (FK866) of 0.081. The pIC50 (FK866) was greater than 8.41.

ESO26 (oesophagus, adherent) showed an AUC (FR-180204) of 0.923, a pIC50 (FR-180204) of less than 4.70 and an AUC (FK866) of 0.416. The pIC50 (FK866) was 7.43.

In the case of ESO51 (oesophagus, semi-adherent), the AUC (FR-180204) was 0.979, the pIC50 (FR-180204) was less than 4.70 and the AUC (FK866) was 0.166. The pIC50 (FK866) was greater than 8.41.

ESS-1 (endometrium, adherent) showed an AUC (FR-180204) of 0.99, a pIC50 (FR-180204) of less than 4.70 and an AUC (FK866) of 0.194. The pIC50 (FK866) was 8.06.

ETK-1 (biliary tract, adherent) was tested, and the AUC (FR-180204) was 0.966, the pIC50 (FR-180204) was less than 4.70 and the AUC (FK866) was 0.337. The pIC50 (FK866) was 7.68.

Work on EVSA-T (breast, adherent) yielded an AUC (FR-180204) of 0.986, a pIC50 (FR-180204) of less than 4.70 and an AUC (FK866) of 0.954. For the same cell line, the pIC50 (FK866) was less than 6.00.

Work on EW-1 (Ewing sarcoma, semi-adherent) yielded an AUC (FR-180204) of 0.941, a pIC50 (FR-180204) of less than 4.70 and an AUC (FK866) of 0.987. For the same cell line, the pIC50 (FK866) was less than 6.00.

Cell Line EW-3 (Ewing sarcoma, adherent) has an AUC (FR-180204) of 0.947, a pIC50 (FR-180204) of less than 4.70 and an AUC (FK866) of 0.058. It also gave a pIC50 (FK866) greater than 8.41.

Cell Line EW-7 (Ewing sarcoma, semi-adherent) has an AUC (FR-180204) of 0.968, a pIC50 (FR-180204) of less than 4.70 and an AUC (FK866) of 0.025. It also gave a pIC50 (FK866) greater than 8.41.

EW-13 (Ewing sarcoma, suspension) showed an AUC (FR-180204) of 0.939, a pIC50 (FR-180204) of less than 4.70 and an AUC (FK866) of 0.094. For the same cell line, the pIC50 (FK866) was greater than 8.41.

In the case of EW-16 (Ewing sarcoma, adherent), the AUC (FR-180204) was 0.901, the pIC50 (FR-180204) was less than 4.70 and the AUC (FK866) was 0.082. The pIC50 (FK866) was greater than 8.41.

In the case of EW-18 (Ewing sarcoma, suspension), the AUC (FR-180204) was 0.915, the pIC50 (FR-180204) was less than 4.70 and the AUC (FK866) was 0.197. It also gave a pIC50 (FK866) of 8.14.

In the case of EW-24 (Ewing sarcoma, semi-adherent), the AUC (FR-180204) was 0.932, the pIC50 (FR-180204) was less than 4.70 and the AUC (FK866) was 0.037. For the same cell line, the pIC50 (FK866) was greater than 8.41.

In the case of “EoL-1-cell (haematopoietic neoplasm, suspension)”, the AUC (FR-180204) was 0.916, the pIC50 (FR-180204) was less than 4.70 and the AUC (FK866) was 0.022. The pIC50 (FK866) was greater than 8.41.

For FLO-1 (oesophagus, adherent), the AUC (FR-180204) was 0.917, the pIC50 (FR-180204) was less than 4.70 and the AUC (FK866) was 0.199. The pIC50 (FK866) was 8.29.
